Measurements from PubChem BioAssay AID1963576 (National Center for Advancing Translational Sciences (NCATS), 2024).
Screen size: about 46,000 compounds; about 60 (0.1%) were called active. Not shown: some 3% with an inconclusive outcome. Calls follow the shape of the dose curve; as a rule, active = well fitted inhibition curve with a large enough effect; inconclusive = small, poorly fitted or top-dose-only effect; inactive = no such curve, though single readings can be large or run the other way. The list shows a part of the results.

Test: Primary qHTS assay for Inhibitors of ovarian cancer metastasis using an organotypic tumor microenvironment (TME) model. Also: nearly all actives have a fitted effect of over 65% in size.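 As to Potency: count of GFP cancer cells still attached after washing and fixation.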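 As to activity change, negative = inhibition: plate controls were DMSO wells for no effect and tomatine positive control wells for full effect.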
Details: SKOV3ip1-GFP adhesion/invasion on 3D omental model, fluorescence; series mostly up to 45.8 µM; activity change, negative = inhibition: at the top concentration
How it was run: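 Primary human omental fibroblast/mesothelial 3D culture pre-formed 48 h. SKOV3ip1-GFP cells added with compounds (0.36-46 umol/L), incubated 2 h RT/16 h 37 C, fixed; GFP cells quantified at 488/509 nm.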
Potency is read from the fitted curve at half-maximal effect.

Row | SMILES | activity change, negative = inhibition | outcome | Potency
1 | CCN1CCSc2ccc(C(=O)NCc3cccc(Br)c3)cc21 | inactive: -6.3% |  | 
2 | COC(=O)c1ccc(NC(=O)CCn2cnnn2)c(C)c1 |  | inactive | 
3 | Cc1ccc2nc(CN3CCN(S(=O)(=O)c4ccc(C(C)C)cc4)CC3)oc2c1 | inactive: 1.57% |  | 
4 | CN(C)CCCn1c(-c2ccc(Cl)cc2)csc1=Nc1ccccc1 | inactive: 14% |  | 
5 | Cc1cc(C)cc(NC(=O)Cn2c(=O)n(-c3ccc(C)c(C)c3)c(=O)c3oc4ccccc4c32)c1 | inactive: -22.2% |  | 
6 | COc1ccc(N2CCN(Cc3nc4c(c(=O)n(C)c(=O)n4C)n3C(C)C)CC2)cc1 | inactive: 6.61% |  | 
7 | Cc1nn(-c2ccccc2)c(OC(=O)c2ccc(Cl)cc2)c1S(=O)(=O)c1ccccc1 | inactive: 13.5% |  | 
8 | COc1cccc(CNC(=O)Cn2ncn3c(cc4ccccc43)c2=O)c1 |  | inactive | 
9 | Cc1ccc(-c2nc3cccc(C)n3c2Nc2ccc3c(c2)OCO3)o1 | inactive: -5.23% |  | 
10 | CCOc1ccccc1C(=O)N1CCc2cc(OC)c(OC)cc2C1COc1ccc(OC)cc1 (stereo not given) |  | inactive | 
11 | CCCNC(=O)c1ccc(Cn2c(SCC(N)=O)nc3ccccc3c2=O)cc1 |  | inactive | 
12 | COc1ccc(OC)c(NC(=O)c2cc3cccc(OC)c3oc2=O)c1 | inactive: -5.33% |  | 
13 | COCCCn1c(SCC(=O)Nc2ccc(OC)cc2)nc2c(sc3ccccc32)c1=O | inactive: -1.58% |  | 
14 | O=C(CSc1nc(=O)n(CCN2CCOCC2)c2c1CCC2)Nc1ccc(F)cc1F |  | inactive | 
15 | CC(C)CC(=O)Nc1ccc2nc(SCC(=O)N3CCOCC3)sc2c1 | inactive: -9.5% |  | 
16 | O=C(c1cc(-c2ccc(Br)cc2)n[nH]1)N1CCN(S(=O)(=O)c2ccc(Cl)s2)CC1 | inactive: 7.3% |  | 
17 | COc1ccc(CNS(=O)(=O)c2cc3c(cc2Cl)NC(=O)CO3)cc1 | inactive: 5.37% |  | 
18 | CCC(=O)Oc1c(Sc2ccc(C)cc2)c(C)nn1-c1ccccc1 |  | inactive | 
19 | CCOC(=O)c1cc(-c2ccc(F)cc2)n(CCC(=O)Nc2cc(OC)cc(OC)c2)c1C | inactive: -15.9% |  | 
20 | O=C(Nc1ccccc1C(F)(F)F)C1CCN(S(=O)(=O)c2ccccc2)CC1 | inactive: -18.6% |  | 
21 | O=C(CSc1nc2ncccc2o1)Nc1ccc(Cl)cc1F | inactive: 2.66% |  | 
22 | Cn1c(=O)c2c(nc(N3CCOCC3)n2Cc2ccccc2F)n(C)c1=O | inactive: -0.395% |  | 
23 | CCCc1nn2c(=O)cc(COC(=O)c3cccc(NC(=O)c4ccc(OCC)cc4)c3)nc2s1 |  | inactive | 
24 | O=C(Cn1cc(SCc2ccc(Cl)cc2)c2ccccc21)N1CCOCC1 | inactive: 6.44% |  | 

Row | SMILES | activity change, negative = inhibition | outcome | Potency
25 | CC(C)Oc1ccc(C(=O)Nc2nnc3n2CCS3)cc1 |  | inactive | 
26 | COC(=O)CSc1nc2sc3c(c2c(=O)n1-c1ccccc1)C(C)CCC3 (stereo not given) | inactive: 6.46% |  | 
27 | COc1cc(C2c3c(-c4cc(C)ccc4O)n[nH]c3C(=O)N2Cc2ccco2)cc(OC)c1OC (stereo not given) | inactive: 3.92% |  | 
28 | COc1ccc(NC(=O)c2cc(S(=O)(=O)N3CCCC(C)C3)cn2C)c(OC)c1 (stereo not given) |  | inactive | 
29 | COc1ccc(NC(=O)CSc2nc3ccccc3n2CC(=O)N(C)C2CCCCC2)cc1 | inactive: -23% |  | 
30 | COc1ccc(-c2cc(OC(=O)c3cccc(Cl)c3)c3c(C)oc(C)c3c(=O)c2)cc1OC | inactive: 18.9% |  | 
31 | COc1ccc(CN(Cc2ccco2)C(=O)COc2ccccc2Cl)cc1 |  | inactive | 
32 | O=S(=O)(c1cccc(Cl)c1)n1c(/C=C/c2ccccc2Cl)nc2ccccc21 | inactive: -13.9% |  | 
33 | Cc1c(Cl)cccc1NC(=O)CSc1nc(=O)[nH]c2c1CCC2 |  | inactive | 
34 | Cc1c2cnn(-c3ccccc3)c(=O)c2c(C)n1CCCC(=O)Nc1cccc(F)c1 |  | inactive | 
35 | O=c1n(Cc2ccccc2)nc2n1-c1cc(Cl)ccc1OC2 | inactive: 30% |  | 
36 | COC(=O)c1ccccc1NC(=O)c1ccc2c(c1)CCN2S(=O)(=O)c1ccc(Cl)cc1 | inactive: 0.449% |  | 
37 | Cc1cc(C)c(S(=O)(=O)NCC2CCC(C(=O)NCCc3ccccc3)CC2)c(C)c1 (stereo not given) | inactive: -5.43% |  | 
38 | Cc1ccc(-c2c3c(=O)n(C)c(=O)n(C)c3c3c(-c4cccc(C)c4)nc4ccccc4n23)cc1 | inactive: -4.47% |  | 
39 | Cc1ccc(C)c(Cn2c3ccccc3c3cnn(CC(=O)NC4CCCCCC4)c(=O)c32)c1 | inactive: 6.79% |  | 
40 | COc1ccc(-n2nc(C(=O)Nc3cc(C)c(Cl)cc3OC)c3c4ccccc4n(C)c3c2=O)cc1 | inactive: -0.319% |  | 
41 | Cc1ccccc1NC(=O)CSc1nc(-c2cccs2)nc2cc(=O)[nH]n12 | inactive: 5.49% |  | 
42 | COc1cccc(-n2c(SCC(=O)Nc3ccc4c(c3)OCO4)nc3c([nH]c4ccccc43)c2=O)c1 |  | inactive | 
43 | COc1cc(OC)cc(C(=O)N2CCN(C(=O)COc3ccc(C)cc3)CC2)c1 | inactive: 32.8% |  | 
44 | CCC(=O)NCC[C@@H]1CCc2ccc3c(c21)CCO3 | inactive: -2.85% |  | 
45 | CCc1c(C)sc(NC(=O)c2cc3nc(-c4ccc(OC)cc4)cc(C(F)(F)F)n3n2)c1C(=O)OC | inactive: -2.63% |  | 
46 | CCN(CC)c1ccc(NC(=O)Cn2nc3c(cc2=O)CCCC3)c(C)c1 | inactive: 2.42% |  | 
47 | N#Cc1nc(/C=C/c2ccc(F)cc2)oc1N1CCCCCC1 | inactive: 53.3% |  | 
48 | CC(NS(=O)(=O)c1ccc2c(c1)CCN2C(=O)CCCC(=O)O)c1ccccc1 (stereo not given) | inactive: -4.35% |  | 

Row | SMILES | activity change, negative = inhibition | outcome | Potency
49 | COc1ccccc1N1CCN(C(=O)c2nn(C)c3c2CS(=O)(=O)c2ccccc2-3)CC1 | inactive: -1.8% |  | 
50 | O[C@@H](COc1cccc2ncccc12)CN1CCN(C2c3ccccc3[C@@H]3[C@H](c4ccccc42)C3(F)F)CC1 (stereo not given in full) | inactive: -19.6% |  | 
51 | CCCc1cc(=O)[nH]c(Nc2cc(Cl)cc(Cl)c2)n1 | inactive: 3.08% |  | 
52 | CC1=C(C(=O)Nc2ccccc2)C(c2ccc(Br)cc2)n2nc(CCCO)nc2N1 (stereo not given) | inactive: 0.696% |  | 
53 | COc1ccc(-n2ncc3c2ncn2nc(-c4ccc(OC)c(OC)c4)nc32)cc1 | inactive: -2.21% |  | 
54 | CC(C)c1ccc(C2CC(=O)N3CN(C4CCCCC4)CSC3=C2C#N)cc1 (stereo not given) |  | inactive | 
55 | Cc1ccccc1-c1nc(CNC(=O)NC2CCCCC2)c(C)o1 | inactive: -7.66% |  | 
56 | Cn1ccc2cc(S(=O)(=O)N3CCCC(C(=O)NCc4ccccc4F)C3)ccc21 (stereo not given) | inactive: -6.3% |  | 
57 | CCOC(=O)c1ccc(NC(=O)Cc2noc3ccc(C)cc23)cc1 | inactive: 2.16% |  | 
58 | Cn1cc(S(=O)(=O)N2CCCC2)cc1C(=O)Nc1ccc(F)cc1F | inactive: -23.8% |  | 
59 | CCN(CC)c1ccc(CN(C(=O)c2cc(=O)c3ccccc3o2)C2CCS(=O)(=O)C2)cc1 (stereo not given) | inactive: -14.8% |  | 
60 | C=CC(=O)N1CCc2ccc(-n3c(=O)ccc4cnc5ccc(-c6cnn(C)c6)cc5c43)cc21 | inactive: 4.2% |  | 
61 | Cc1nn(Cc2ccc(F)cc2)c(C)c1NC(=O)c1noc2c1CCc1ccccc1-2 | inactive: -5.52% |  | 
62 | CCn1cc2nc(SCc3cc(C)ccc3C)n(Cc3ccc(Cl)cc3)c(=O)c2n1 |  | inactive | 
63 | COc1cccc(CNC(=O)CN2C(=O)COc3ccc(S(=O)(=O)N4CCCCC4)cc32)c1 |  | inactive | 
64 | O=C(C1CCN(S(=O)(=O)c2cccs2)CC1)N1CCN(c2ccccc2F)CC1 | inactive: -4.7% |  | 
65 | O=C(CCCCCn1c(=O)[nH]c2ccccc2c1=O)N1CCN(c2cccc(C(F)(F)F)c2)CC1 | inactive: 11.4% |  | 
66 | Cc1ccc(CNC(=O)CCCCCn2c(=O)c3sccc3n(CC(=O)N3CCCCC3C)c2=O)cc1 (stereo not given) | inactive: 8.94% |  | 
67 | Cc1ccc(-c2nc3sc(CCNC(=O)c4ccc(F)c(F)c4)c(C)n3n2)cc1 |  | inactive | 
68 | CCCCC12CN3CC(C)(CN(C1)C3c1ccc(OCc3ccccc3)cc1)C2=O (stereo not given) | inactive: -4.95% |  | 
69 | CC1=C(C(=O)Nc2ccccc2Br)C2(CCC(C)CC2)OC1=O (stereo not given) | inactive: -4.64% |  | 
70 | CC(C)NC(=O)c1ccc(CSc2nc3ccncc3n2Cc2cccc(F)c2)cc1 | inactive: -7.17% |  | 
71 | CCCn1cc(S(=O)(=O)c2ccc(C)c(C)c2)c(=O)c2cc(F)c(N3CCCCC3)cc21 | inactive: -8.74% |  | 
72 | Cc1ccccc1NC(=O)c1sc2nc(-c3cc4ccccc4oc3=O)[nH]c(=O)c2c1C |  | inactive | 

Row | SMILES | activity change, negative = inhibition | outcome | Potency
73 | CCN(C(=O)Cn1c(C(=O)OC)cc2sccc21)c1cccc(C)c1 | inactive: 2.86% |  | 
74 | Cc1ccccc1NC(=O)c1c(C)oc2ccc(O)c(CN3CCCCCC3)c12 | inactive: 2.89% |  | 
75 | COc1ccc(C)cc1NC(=O)CN(C)S(=O)(=O)c1ccc2c(c1)c(=O)n(C)c(=O)n2C |  | inactive | 
76 | FC(F)(F)c1cccc(Nc2nc3nonc3nc2Nc2ccc(Cl)cc2)c1 |  |  | active: 10 µM
77 | Cc1nc(-c2ccc(S(=O)(=O)N3CCN(c4ccccc4F)CC3)cc2)co1 | inactive: 26.4% |  | 
78 | CCC(CC)C(=O)Nc1ccc(S(=O)(=O)N2CCC(c3nc4ccccc4s3)CC2)cc1 |  | inactive | 
79 | O=C(NC1CCCCC1)c1ccc(CSc2nc3cccnc3n2Cc2ccccc2)cc1 | inactive: -19.7% |  | 
80 | CC1=C(c2ccc(C(C)C)cc2)S(=O)(=O)N=C1N1CCC(C(=O)NCc2ccc(C)o2)CC1 | inactive: 10.6% |  | 
81 | CC(=O)Nc1cccc(NC(=O)CSc2nccn2Cc2ccccc2)c1 | inactive: 3.17% |  | 
82 | CCOC(=O)c1c(C)[nH]c(CCC(=O)NCc2ccc(OC)cc2OC)c1C | inactive: -5.97% |  | 
83 | COc1ccc(OCCCn2c(C3CC(=O)N(c4ccc(F)cc4)C3)nc3ccccc32)cc1 (stereo not given) | inactive: -8.28% |  | 
84 | Cc1nc2c(-c3ccc(F)cc3)c(C)nn2c(C)c1CCC(=O)NCc1ccc(F)cc1 |  | inactive | 
85 | Cc1ccc(CN(Cc2cccn2-c2nnc(N3CCCC3=O)s2)C(=O)Nc2ccccc2Cl)cc1 | inactive: 14.9% |  | 
86 | Cc1cc(C)c2c(NC(=O)c3ccccc3Cl)c(C(=O)NCc3ccc(Cl)cc3)sc2n1 | inactive: 4.46% |  | 
87 | O=C(COc1ccccc1-c1nc(-c2ccccc2)no1)Nc1ccc([N+](=O)[O-])cc1 | inactive: -17.3% |  | 
88 | Cc1c(CC(=O)NCCc2ccccc2)c(=O)oc2c(C)c3occ(C(C)(C)C)c3cc12 | inactive: 1.14% |  | 
89 | CCOC(=O)c1c(N)n(-c2ccc(OCC)cc2)c2nc3ccccc3nc12 |  | inactive | 
90 | Cc1cc(Nc2cc(Cl)ccc2C)n2nc(-c3ccccc3)nc2n1 | inactive: -18.9% |  | 
91 | CC(=O)c1cccc(NC(=O)Cn2ccn3nc(-c4ccccc4)cc3c2=O)c1 | inactive: 0.984% |  | 
92 | Cc1cccc(-n2c3nc(=O)[nH]c(=O)c-3cc3ccc(Cl)cc32)c1C | inactive: -5.67% |  | 
93 | CCOc1ccc(-c2cc(C(=O)NCCc3ccc(C)cc3)c3ccccc3n2)cc1 | inactive: -7.41% |  | 
94 | COc1ccc(OC)c(-c2noc(N3CCN(c4cccc(C(F)(F)F)c4)CC3)n2)c1 | inactive: 25.8% |  | 
95 | O=C(CSc1nc2c([nH]c3ccccc32)c(=O)n1-c1ccccc1)N1CCCCC1 |  | inactive | 
